# Laboratory results reported in the supplement of paper PMC8728848.
# The list shows a part of the results.
# B1: BC2LB (Burholderia cenocepacia), B4EH85_BURCJ (protein)
# chain: MGSSHHHHHHSSGENLYFQGHMSQPFTHDDLYALLQLAGNDATAVQANGDQAVLDRMRQFMTAQLVEKLPQYDVFVDIATIPYSFDVGSWQNKVKTDAAGEVVACTVTWAGAPGVLPGAAAKFGVGAVVNYFSKATPH
# How the values were obtained:
# Assay in all cases: glycan array binding signal (z-score within array); higher = stronger binding
# Conditions in all cases: glycan notation: IUPAC condensed, linker removed
# Neu5Ac(a2-8)Neu5Ac = molecular target: Neu5Ac(a2-8)Neu5Ac
# In short: (§1)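 Arrays were curated from the Consortium for Functional Glycomics database, 3228 in total, and kept only where the protein sequence was available. Binding is expressed as a within-array Z-score. This score was averaged across arrays of the same protein sequence at different concentrations or buffers and across linkers, and negative values can be read as non-binding.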
# [1] = molecular target: Neu5Ac(a2-8)Neu5Ac(a2-3)Gal(b1-3)GalNAc(b1-4)[Neu5Ac(a2-3)]Gal(b1-4)Glc
# In short: as §1
# [2] = molecular target: Neu5Ac(a2-8)Neu5Ac(a2-3)Gal(b1-3)GalNAc(b1-4)[Neu5Ac(a2-8)Neu5Ac(a2-3)]Gal(b1-4)Glc
# In short: as §1
# [3] = molecular target: Neu5Ac(a2-8)Neu5Ac(a2-3)Gal(b1-4)Glc
# In short: as §1
# [4] = molecular target: Neu5Ac(a2-8)Neu5Ac(a2-3)Gal(b1-4)GlcNAc
# In short: as §1
# [5] = molecular target: Neu5Ac(a2-8)Neu5Ac(a2-3)[Gal(b1-3)GalNAc(b1-4)]Gal(b1-4)Glc
# In short: as §1
# [6] = molecular target: Neu5Ac(a2-8)Neu5Ac(a2-3)[GalNAc(b1-4)]Gal(b1-4)Glc
# In short: as §1
# [7] = molecular target: Neu5Ac(a2-8)Neu5Ac(a2-8)Neu5Ac
# In short: as §1
# [8] = molecular target: Neu5Ac(a2-8)Neu5Ac(a2-8)Neu5Ac(a2-3)Gal(b1-4)Glc
# In short: as §1
# [9] = molecular target: Neu5Ac(a2-8)Neu5Ac(a2-8)Neu5Ac(a2-3)[Gal(b1-3)GalNAc(b1-4)]Gal(b1-4)Glc
# In short: as §1
# [10] = molecular target: Neu5Ac(a2-8)Neu5Ac(a2-8)Neu5Ac(a2-3)[GalNAc(b1-4)]Gal(b1-4)Glc
# In short: as §1
# [11] = molecular target: Neu5Ac(a2-8)Neu5Ac(a2-8)Neu5Ac(a2-8)Neu5Ac(a2-3)[GalNAc(b1-4)]Gal(b1-4)Glc
# In short: as §1
# [12] = molecular target: Neu5Ac(a2-8)Neu5Gc(a2-3)Gal(b1-4)GlcNAc
# In short: as §1
# [13] = molecular target: Neu5Ac(b2-6)Gal(b1-4)GlcNAc
# In short: as §1
# Neu5Ac(b2-6)GalNAc = molecular target: Neu5Ac(b2-6)GalNAc
# In short: as §1
# [14] = molecular target: Neu5Ac9Ac(a2-3)Gal(b1-3)GlcNAc
# In short: as §1
# [15] = molecular target: Neu5Ac9Ac(a2-3)Gal(b1-4)GlcNAc
# In short: as §1
# [16] = molecular target: Neu5Ac9Ac(a2-6)Gal(b1-4)GlcNAc
# In short: as §1
# [17] = molecular target: Neu5Gc(a2-3)Gal(b1-3)GlcNAc
# In short: as §1
# [18] = molecular target: Neu5Gc(a2-3)Gal(b1-3)[Fuc(a1-4)]GlcNAc
# In short: as §1
# Neu5Gc(a2-3)Gal(b1-4)Glc = molecular target: Neu5Gc(a2-3)Gal(b1-4)Glc
# In short: as §1
# [19] = molecular target: Neu5Gc(a2-3)Gal(b1-4)GlcNAc
# In short: as §1
# [20] = molecular target: Neu5Gc(a2-3)Gal(b1-4)GlcNAc(b1-3)Gal(b1-4)GlcNAc(b1-2)Man(a1-3)[Neu5Gc(a2-3)Gal(b1-4)GlcNAc(b1-3)Gal(b1-4)GlcNAc(b1-2)Man(a1-6)]Man(b1-4)GlcNAc(b1-4)GlcNAc
# In short: as §1
# [21] = molecular target: Neu5Gc(a2-3)Gal(b1-4)[Fuc(a1-3)]GlcNAc
# In short: as §1
# [22] = molecular target: Neu5Gc(a2-6)Gal(b1-4)GlcNAc
# In short: as §1
# Neu5Gc(a2-6)GalNAc = molecular target: Neu5Gc(a2-6)GalNAc
# In short: as §1
# [23] = molecular target: Neu5Gc(a2-8)Neu5Ac(a2-3)Gal(b1-4)GlcNAc
# In short: as §1
# [24] = molecular target: Neu5Gc(a2-8)Neu5Gc(a2-3)Gal(b1-4)GlcNAc
# In short: as §1
# [25] = molecular target: Neu5Gc(a2-8)Neu5Gc(a2-3)Gal(b1-4)GlcNAc(b1-3)Gal(b1-4)GlcNAc
# In short: as §1
# [26] = molecular target: Neu5Gc(a2-8)Neu5Gc(a2-6)Gal(b1-4)GlcNAc
# In short: as §1
# [27] = molecular target: Neu5Gc(b2-6)Gal(b1-4)GlcNAc
# In short: as §1
binder,measurement,setting,value
B1,glycan array binding signal (z-score),Neu5Ac(a2-8)Neu5Ac,-0.116
same,glycan array binding signal (z-score),[1],-0.191
same,glycan array binding signal (z-score),[2],-0.329
same,glycan array binding signal (z-score),[3],-0.306
same,glycan array binding signal (z-score),[4],-0.282
same,glycan array binding signal (z-score),[5],-0.226
same,glycan array binding signal (z-score),[6],-0.29
same,glycan array binding signal (z-score),[7],-0.251
same,glycan array binding signal (z-score),[8],-0.259
same,glycan array binding signal (z-score),[9],-0.227
same,glycan array binding signal (z-score),[10],-0.306
same,glycan array binding signal (z-score),[11],-0.178
same,glycan array binding signal (z-score),[12],-0.421
same,glycan array binding signal (z-score),[13],-0.283
same,glycan array binding signal (z-score),Neu5Ac(b2-6)GalNAc,-0.331
same,glycan array binding signal (z-score),[14],-0.007
same,glycan array binding signal (z-score),[15],-0.284
same,glycan array binding signal (z-score),[16],-0.108
same,glycan array binding signal (z-score),[17],0.437
same,glycan array binding signal (z-score),[18],-0.249
same,glycan array binding signal (z-score),Neu5Gc(a2-3)Gal(b1-4)Glc,1.13
same,glycan array binding signal (z-score),[19],0.007
same,glycan array binding signal (z-score),[20],-0.198
same,glycan array binding signal (z-score),[21],-0.092
same,glycan array binding signal (z-score),[22],-0.13
same,glycan array binding signal (z-score),Neu5Gc(a2-6)GalNAc,0.6
same,glycan array binding signal (z-score),[23],-0.298
same,glycan array binding signal (z-score),[24],-0.307
same,glycan array binding signal (z-score),[25],-0.34
same,glycan array binding signal (z-score),[26],-0.248
same,glycan array binding signal (z-score),[27],-0.265
